Reference: PubChem BioAssay AID894 (National Center for Advancing Translational Sciences (NCATS), 2007)
The campaign covered roughly 150,000 compounds. About 6,500 (4.3%) were called active. The inconclusive results got no clear call from the source; some entries with a clear call stand among them for comparison. Calls come from the whole dose curve; as a rule, active = well fitted inhibition curve with a large enough effect (not every such curve was filed as active); inconclusive = small, poorly fitted or top-dose-only effect, or another doubt; inactive = no such curve, though single readings can be large or run the other way. Potencies beside an inconclusive call are fits to weak or partial responses and may not hold up.

Target: 15-hydroxyprostaglandin dehydrogenase [NAD(+)] (Homo sapiens) (UniProt P15428)
Assay: qHTS Assay for Inhibitors of HPGD (15-Hydroxyprostaglandin Dehydrogenase)
Conditions: purified HPGD, NADH fluorescence kinetic, PGE2 substrate; activity change, negative = inhibition: hits give low values
How it was run: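 20 nM HPGD preincubated 15 min at room temperature with compound in 50 mM Tris-HCl pH 8, 0.01% Tween 20. Started with 1 mM NAD+ and 30 uM prostaglandin E2; NADH fluorescence (360/450 nm) read 5 times over 30-s intervals, last minus first.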
% is set by controls: 0 for no effect and ±100 for the full control effect; potency is the fitted concentration of half-maximal effect; tags give direction and shape of the fitted curve.

Sequence of UniProt P15428 (P15428 whole entry, looked up): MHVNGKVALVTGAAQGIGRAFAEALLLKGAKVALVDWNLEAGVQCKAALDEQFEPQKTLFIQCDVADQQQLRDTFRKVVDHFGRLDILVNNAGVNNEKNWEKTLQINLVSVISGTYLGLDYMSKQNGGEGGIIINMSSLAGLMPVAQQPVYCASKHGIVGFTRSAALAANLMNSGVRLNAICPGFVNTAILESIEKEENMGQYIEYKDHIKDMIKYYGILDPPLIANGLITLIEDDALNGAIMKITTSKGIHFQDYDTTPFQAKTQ

Potency, active:
Cc1cccc(Cc2c(C)nc3nc(SCC(=O)NCc4ccco4)nn3c2C)c1 15.8 µM
O=C(c1ccc(F)cc1)C1CCN(CCn2c(=S)[nH]c3ccccc3c2=O)CC1 14.1 µM
Cc1ccc(CNC(=O)Cc2cccs2)cc1 15.8 µM
CN(C)S(=O)(=O)c1cccc(-c2nn(-c3ccccc3)cc2/C=C2\SC(=S)NC2=O)c1 15.8 µM
COc1cc(/C=C2/C(=O)c3cccc([N+](=O)[O-])c3C2=O)c(Br)cc1O 1.41 µM
COc1ccc(N(CC(=O)NCCSC2CCCCC2)S(C)(=O)=O)c(OC)c1 22.4 µM
CCN(CC)C(=O)c1ccc(COc2ccccc2Cl)cc1 0.355 µM
O=C(Nc1ccccc1)Nc1cc(S(=O)(=O)N2CCOCC2)ccc1N1CCCC1 14.1 µM
CCCC(=O)c1ccc(N2CCCC2)c(F)c1 22.4 µM
O=C(CSc1nc2ccccc2c(=O)[nH]1)c1ccccc1 12.6 µM
COc1ccc(N/C=C(/C(C)=O)c2ccccc2)cc1 22.4 µM

Potency, inconclusive:
CN(C)S(=O)(=O)c1ccc2nc(NC(=O)c3cccs3)sc2c1 35.5 µM [inhibitor, partial curve]
COc1ccc(C2CC(=O)Oc3cc4c(cc32)OCO4)cc1 (centres undefined) 11.2 µM [inhibitor, single point]
Cc1ccc(Cn2c(=S)[nH]c3ccc(N4CCOCC4)cc3c2=O)o1 12.6 µM [inhibitor, partial curve]
COCCn1c(SCC(=O)c2ccc(Cl)cc2)nnc1C(C)C 39.8 µM [inhibitor, single point]
CCCCn1nc2cc(C(=O)NC3CCCc4ccccc43)ccc2c1OCC (centres undefined) 31.6 µM [inhibitor, partial curve]
Cc1ccc(-c2ccc(/C=N\NC(=O)c3cc4c(ccc5ccccc54)o3)o2)cc1[N+](=O)[O-] 35.5 µM [inhibitor, partial curve]
CCCc1cc(C(=O)Cc2ccc(C(=O)OCC)o2)c(O)cc1O 20 µM [inhibitor, partial curve]
Cc1cc(C)c(NC(=O)COc2ccccc2C(=O)Nc2ccc3c(c2)oc2ccccc23)c(C)c1 14.1 µM [inhibitor, partial curve]
O=C(NCc1ccccc1)NC1CCCCC1 12.6 µM [inhibitor, partial curve]
COc1cccc2c1NC(C(=O)O)C1CC=CC21 (centres undefined) 35.5 µM [inhibitor, single point]
COc1ccc(CC(=O)Nc2ccc(-c3cn4ccccc4n3)cc2)cc1 25.1 µM [inhibitor, partial curve]
O=C1C(Cl)=C(Sc2nnc3c4ccccc4c4ccccc4c3n2)C(=O)c2ccccc21 6.31 µM [inhibitor, single point]
O=C(Cn1cnc2ccccc2c1=O)c1ccc2ccccc2c1 31.6 µM [inhibitor, single point]
CCCc1cc(=O)oc2c(CN3CCCC3)c(O)ccc12 3.16 µM [inhibitor, partial curve]
N#C/C(=C\c1cccc([N+](=O)[O-])c1)C(=O)NCc1cccnc1 28.2 µM [inhibitor, partial curve]
N#Cc1c(NC(=O)CSc2n[nH]c(Cc3ccccc3)n2)oc(-c2ccccc2)c1-c1ccccc1 31.6 µM [inhibitor, single point]
Cc1cc(C)n2nc(C(=O)NCc3ccccc3)cc2n1 25.1 µM [inhibitor, partial curve]
CN1CC=C2C(C#N)=C(N)C(C#N)(C#N)C(CCc3ccccc3)C2C1 (centres undefined) 35.5 µM [inhibitor, single point]
CC(C)CCNc1nc(-c2ccco2)c2c(c1C#N)CCCC2 28.2 µM [inhibitor, partial curve]
COC(=O)c1ccccc1N/C=C1\CCc2c(c(C)nn2-c2ccccn2)C1=O 22.4 µM [inhibitor, single point]
N#C/C(=C/c1ccc(Sc2nc3ccccc3[nH]2)o1)c1cccc(F)c1 20 µM [inhibitor, partial curve]
COc1ccc(CNC(=O)CS(=O)Cc2nc(-c3ccccc3C)oc2C)cc1 (centres undefined) 25.1 µM [inhibitor, partial curve]
O=C(/C=C/c1ccc2c(c1)OCO2)NCc1ccco1 28.2 µM [inhibitor, partial curve]
O=c1c(CCc2ccccc2)nc2cnc(N3CCOCC3)nc2n1C[C@H]1CCCO1 5.01 µM [inhibitor, partial curve]
COCCNC(=O)C(=O)c1cc(C)n(-c2ccc([N+](=O)[O-])cc2)c1C 25.1 µM [inhibitor, partial curve]
NC(=O)c1nc(C2CCCCC2)nc2c1[nH]c(=O)n2-c1ccc(F)cc1 14.1 µM [inhibitor, partial curve]
O=C(Nc1nc2c(s1)CCCC2)c1cc(-c2ccc3c(c2)OCO3)nc2ccccc12 22.4 µM [inhibitor, partial curve]
CCOC(=O)c1[nH]c2ccc(Cl)cc2c1-c1ccccc1 31.6 µM [inhibitor, partial curve]
C/C(=N\NC(=O)c1c(Br)c(C)nn1C)c1ccc(NC(=O)c2ccoc2C)cc1 31.6 µM [inhibitor, partial curve]
COC(=O)c1sc2nc(SCc3ccccc3C)n(N)c(=O)c2c1C 31.6 µM [inhibitor, partial curve]
Cc1c(C(=O)Nc2ccc(-n3cnnn3)cc2)oc2ccccc12 17.8 µM [inhibitor, partial curve]
COc1ccc(N2Cc3cccc(C(=O)NC(C)CCc4ccco4)c3C2=O)cc1 (centres undefined) 31.6 µM [inhibitor, partial curve]
CCc1cc(=O)oc2cc(OCC(=O)N(CC)CC)c(Cl)cc12 28.2 µM [inhibitor, partial curve]
CCc1nc(Nc2ccc3c(c2)OCO3)c2oc3ccccc3c2n1 20 µM [inhibitor, partial curve]
CCN1C(=O)c2cccc3c(S(=O)(=O)N(C(=O)c4cccnc4)c4ccc(OC)cc4)ccc1c23 31.6 µM [inhibitor, partial curve]
Cc1cc(=O)oc2c(C)c(OCC(=O)N(C)C)ccc12 20 µM [inhibitor, partial curve]
CCCNC(=O)COC(=O)c1cc2c(=O)n3ccccc3nc2s1 31.6 µM [inhibitor, partial curve]
CN(C)c1nc(N)nc(CSc2nnnn2-c2ccccc2)n1 28.2 µM [inhibitor, partial curve]
CN(C)c1ccc(C(=C2C=CC(=[N+](C)C)C=C2)c2ccccc2)cc1 15.8 µM [inhibitor, single point]
Cc1ccc(C(=O)c2coc3c2C(=O)C(=O)c2ccccc2-3)cc1 39.8 µM [inhibitor, single point]
O=C(Nc1ccc(-c2nc3cccnc3s2)cc1)c1ccc(Br)o1 3.55 µM [inhibitor, partial curve]
O=C(N/N=C\C=C\c1ccc2c(c1)OCO2)C1COc2ccccc2O1 (centres undefined) 28.2 µM [inhibitor, single point]
O=C(Nc1nc2c(Cl)ccc(Cl)c2s1)c1ccco1 15.8 µM [inhibitor, partial curve]
Cc1ccc(-n2c(-c3ccco3)nc3nc4ccccc4nc32)cc1 3.55 µM [inhibitor, full curve]
O=C(Nc1ccc2ccccc2c1)/C(=C\c1ccc2c(c1)OCO2)NC(=O)c1ccco1 28.2 µM [inhibitor, single point]

Activity change, negative = inhibition, inactive:
NC(N)=NCCCCN=C(N)N -9.11% [middle of 4 runs]
COc1ccc(CCCO[C@@H](Cn2ccnc2)c2ccc(OC)cc2)cc1 -28.4%
COc1ccc(C(=O)N/N=c2\oc3ccccc3cc2C(=O)NCc2ccccc2)cc1 -4.96%
CCOC(=O)c1c(C)c(C(=O)NCc2ccc3c(c2)OCO3)c(C)n1C -11.8%
Oc1c(Cl)cc(Cl)cc1C=Nc1ccc(Br)cc1 -3.84%
O=C(CSc1nc(N2CCCCC2)nc(N2CCCCC2)n1)Nc1nccs1 2.99%
Cc1ccc(S(=O)(=O)Cc2ccc(C(=O)O)o2)cc1 -22.8%
O=c1cc(NCc2ccc3c(c2)OCO3)[nH]c(=O)n1-c1ccc(Cl)cc1 -7.76%
CCc1nnc(NC(=O)CSc2nnc(C3CCCCC3)n2-c2cccc(Cl)c2)s1 5.12%
CCCCn1c(SCc2cc(=O)n3ccsc3n2)nc2cc(C(=O)OC)ccc2c1=O -14.8%
COc1ccc([N+](=O)[O-])cc1NC(=O)C(C)Sc1nc(C)c(C)c(C)n1 (centres undefined) -19.4%
COc1ccc(-c2nc3cnccn3c2Nc2ccc3c(c2)OCO3)cc1 -19.3%
O=C(COC(=O)c1c2c(nc3ccccc13)/C(=C\c1cccs1)CCC2)Nc1ccccc1Cl -25.4%
